# Results taken from the RNAGym collection of RNA variant scans (doi:10.7554/elife.90254).
# Read counts are not given, so values of variants with three or more changes are uncertain.
# B1: LINE1-full (parent)
# chain: UACGUAGGUGGUUUUCCCCUGAUAGUGCUAAGGGGGCCUGGAAGUUUGGACUGGGCAGAGCUCAACACAGCGUGGCAAAGUGGCUGUGGCUAGACUGCCUCUCUGGAUUCCUCGUCACUCAGCAGGGCAUCUCUGAGAGAAAUGCC
# Variants of: B1
# Experiment: self-cleavage, relative activity (ratio to wild type); higher = more cleavage; in vitro, sequencing; the parent is a self-cleaving ribozyme
row,Variant,self-cleavage
1,UACGUAGGUGGUUUUCCCCUGAUGGUGCAAAAGGGGCCUGGAAGUUUGGACUGGGCAGAGCUCAACACAGCGUGGCAAAGUGGCCGUGGCUAGACUGCCUCUCUGGAUUCCUCGUCACUCAGCAGGGCAUCUCUGAGAGAAAUGCC [A24G U29A G32A U85C],0.28
2,UACGUAGGUGGCUUUCCCCUGAUAGUGCUAAGGGGGCCAGGAAGUUUGGACUGGGCAGAGCUCAACACAGCGUGGCAAAGUGGCUGUGGCUAGACUGCCUCUCUGGAUUCCUCGUCACUCAGCGGGGCAUCUCUGAGAGAAAUGCC [U12C U39A A124G],0.58
3,UACGUAGGUGGUUUUCCCCUGAUAGUGCUAAGGGGGCCUGGAAGUUUGGACAGGGCAGAGCUCAACAUAGCGUGGCAAAGCGGCUGUGGCUAGACUGCCUCUCUGGAUUCCCCGUCUCUCAGCAGGGCAUCUCUGAGAGAAAUGCC [U52A C68U U81C U112C A117U],0.07
4,UACGUAGGUGGUUUUCCCCUGAUAGUGCUAAGGGGGCCCGGAAGUUCGGACUGGGCAGAGCUCAACACAGCGCGGCAAAGUGGCUGUGGCUAGACUGCCUCUCUGGAUUCCUCGUCACUCAGCAGGGCAUCUCUGAGAGAAAUGCC [U39C U47C U73C],1.31
5,UACGUAGGCGGUUUUCCCUUGAUAGUGCCAAGGGGGCCUGGAAGUUUGGACUGGGCAGAGCUCAACACAGCGUGGCAAAGUGGCUGUGGCUAGACUGCCUCUCUGGAUUCCUCGUCACUCAGCAGGGCAUCUCAGAGAGAAAUGCC [U9C C19U U29C U134A],1.49
6,UACGUAGGUGGUUUUCCCCUGGUAGUGCUAAGGGGGCCUAGAAGUUUGGACUGGGCAGAGCUCAACACAGCGUGGCAAAGUGGCUGUGGCUAGACUGCCUCUCUGGAUCCCUCGUCACUCAGCAGGGCAUCUCUGAGAGAAAUGCC [A22G G40A U109C],0.83
7,UACGUAGGUGGUUUUCCCCUGAUAGCGCUAAGGGGGCCUGGGAGUUUGGACUGGGCAGAGCUCAACACAGCGCGGCAAAGUGGCUGUGGCUAGACUGCCUCUCUGGAUUCCUCGUCACUCAGCAGGGCAUCUCUGAGAGGAAUACC [U26C A42G U73C A140G G144A],0
8,UACGUAGGUGGUUUUCCCCUGAUUGUGCUAAGGGGGCCUGGAAGUUUGGACUGGGCAGAGCUCAACACGGCGUGGCAAAGUGGCUGUGGCUAGACUGCCUCUCUGGAUUCCUCGUCACUCGGCAGGGCAUCUCUGAGAGAAAUGCC [A24U A69G A121G],0.54
9,UACGUAGGAGGUUCUCCCCUGAUAGUGCUAAGGGGGCCUGGAAGUUUGGACUGGGCAGAGCUCAACACAGCGUGGCAAAGUGGCUGUGGCUAGACUGCCUCUCUGGAUUCCUUGUCACUCAGCAGGGCAUCUCUGAGAGAAAUGCC [U9A U14C C113U],0.79
10,UACGUAGGUGGUUCUCCCCUGAUAGUGCUAAGGGGGCCUGGAAGUUUGGACUGGGCAGAGCUCAACACAGCGUGGCAAAGAGGCUGUGGCUAGACUGCCUCUCUGGAUUCCACGUCACUCAGCAGGGCAUCUCUGAGAGAAAUGCC [U14C U81A U112A],1.56
11,UACGUAGGUGGUUUUCCCCUGAUAGUGCUAAGGGGGCCUGGAAGUUUGGACUGGGCAGAGCCCAACACAGCGUGGCAGAGUGGCUGUGGCUAGACUGCCUCUCUGGAUUCCUCGUCACUCAGCAGGGCAUCUCUGAGAGAGAUGCC [U62C A78G A141G],0
12,UACGUAGGUGGCUUUCCCCUGAUAGUGCUAAGGGGGCCUGUAAGUUUGGACUGGGCAGAGCUCAACACAGCGUGGCAAAGUGGCUGUGGCUAGACUGCCUCUCUGGAUUCCUCGUCACUCAGCAGGGCAUCUCUGGGAGAAAUGCC [U12C G41U A136G],1.26
13,UACGUAGGUGGUUUUCCCCCGAUAGUGCUAAGGGGGCCUGGAAGUUUGGACUGGGCAGAGCUCAACACAGCGUGGCAAAGUGGCUGCGGCUAGACUGCCUCUCUGGAUUCCUCGCCACUCAGCAGGGCAACUCUGAGAGAAAUGCC [U20C U87C U115C U130A],0.9
14,UACGUAGGUGGUUUUCCCCUGAUAGAGCUAAGGGGGCCUGGAAGUUUGGACUGGGCAGAGCUCAACACAGCGUGGCAAAGUAGCUGUGGCUAGACUGCCUCCCUGGAUUCCUCAUCACUCAGCAGGGCAUCUCCGAGAGAAAUGCC [U26A G82A U102C G114A U134C],0.79
15,UACGUAGGUGGUCUUCCCCUGAUAGUGCUAAGGGGGCCUGGAAGUUUGGACUGGGCAGAGCUCAACACAGCGAGGCAAAGUGGCUGUGUCUAGAUUGCCUCUCUGGACUCCUCGUCACUCAGCAGGGCAUCUCUGAGAGAAAUGCC [U13C U73A G89U C95U U108C],0.03
16,UACGUAGGUGGUUCUCCCCUGAUAGUGCUAAGGGGGCCUGGAAGUUUGGACUGGGCAGAGCUCGACACAGCGUGGCAAAGUGGCUGUAGCUAGACUGCCUCUCUGGAUUCCUCGUCACUCAGCAGGGCAUCUCUGAGUGAAAUGCC [U14C A64G G88A A138U],0.08
17,UACGUAGGUGGUUCUCCCCUGAUAGUGCUAAGGGGGCCUGGAAGUUUGGACUGAGCAGAGCUCAACACAGCGUGGCAAAGUGCCUGUGGCUAGACCGCCUCUCUGGAUUCCUCGUCACUCAGCAGGGCAUCUCUGAGAGAAAUGCC [U14C G54A G83C U96C],0.05
18,UACGUAGGCGGUUUUCCCCUGAUAGUGCUAAGGGGGCCUGGAAGUUUGGACUGGGCAGAGCCCAACGCAGCGUGGCAAAGUGGCUGUGGCUAGACUGCCUCUCUGGAUUCCUCGUCACUCAGCAGGGCAUCUCUGAGAGAAAUGCC [U9C U62C A67G],0
19,UACGUAGGUGGUUUUCCCCUGACAGUGCUAAGGGGGCCUGGAAGUUUGGACUGGGCAGAGCUCAACACAGCGUGGCAAAGUGGCUGUGGCUAGACUGCCUCUCCGGAUUCCUCGCCACUCAGCAGGGCAUCUCUGAGAGAAAUGCC [U23C U104C U115C],2.04
20,UACGUAGGUGGUUUUCCCCUGAUAGCGCUAAGGGGGCCUGGAAGUUUGGACUGGGCAGAGCUCAACACAGCGUGGCAGAGUGGCUGUGGCUAGACUGCCUCUCUGGAUCCCUCGUCACUCAGCAGGGCAUCUCUGAGAGAAAUGCC [U26C A78G U109C],0.71

row,Variant,self-cleavage
1,UGCGUAGGUGGUUUUCCCCUGAUAGCGCUAAGGGGGCCUGGAAGUUUGGACUGGGCAGAGCUCAACACAGCGUGGCAAAGUGGCUGUGGCUAGACUGCCUCUCUGGAUUCCUCGUCACUCAGCAGAGCAUCUCUGUGAGAAAUGCC [A2G U26C G126A A136U],0.62
2,UACGUAGGUGGCUUUCCCCUGAUAGUGCUUAGGGGGCCUGGAAGUUUGGACUGGGCAGAGCUCAACACAGCGUGGCAAGGUGGCUGUGGCUAGACUGCCUCUCUGGAUUCCUCGUCACUCAGCAGGGCAUCUCUGAGAGAAAUGCC [U12C A30U A79G],1.19
3,UACGUAGGUGGUUUUCCCCUGAUAGUGCUAAGGGGGCCUGGAAGUUUGGACUGGGCAGAGCUCAACACAGCGAGGCAAAGUGGCUGUGGCUAGACUGCCUCUCUGGAUUCCUCGCCACUCAGCAGGGCAUCUCUGAGAGAGAUGCC [U73A U115C A141G],1.96
4,UACGUAGGUGGUUUUCCCCUGAUAGUGCUAAGGGGGCCCGGAAGUUUGGACUGGGCAGAGCUCAACACAGCGUGGCAAUGUGGCUGUGGCUAGACUGCCUCUCUGGAUUCCUCGUCACUCAGCAGGGCAUCUCUGAGAGGAAUGCC [U39C A79U A140G],1.62
5,UACGUAGGAGGUUUUCCCCUGAUAGUGCUAAGGGGGCCUGGAAGUUUGGACUGGGCGGAACUCAACACAGCGUGGCAAAGUGGCUGUAGCUAGACUGCCUCUCUGGAUUCCUCGUCACUCAGCAGGGCAUCUCUGAGAGAAAUGCC [U9A A57G G60A G88A],0.09
6,UACGUAGGUGGUUCUCCCCUGAUAGUGCUAAGGGGGCCUGGAAGUUUGGACUGGGCAGAGCCCAACACAGCGUGGCAAAGUGGCUGUGGCUAUACUGCCUCCCUGGAUUCCUCGUCACUCAGCAGGGCAUCUCUGAGAGAAAUGCC [U14C U62C G93U U102C],0.06
7,UACGUAGGUGGUUUUCCCCUGAUAGUGCUAAGGGGGCCUGGAAGUUUGGGCUGGGCAGAGCCCAACACAGCGUGGCAAAGUGGCUGUGGCUAGACUGCCUCUCUGGAUUCCUCGUCACUCUGCAGGGCAUCUCUGAGGGAAAUGCU [A50G U62C A121U A138G C146U],0
8,UACGUAGGUGGUUUUCCCCUGAUAGUGCUAAGGGGGCCUGGAAGUUAGGACUGAGCAGAGCUCAACACAGCGUGGCAAAGGGGCUGUGGCUAGACUGCCUCUCGGGAUUCCUCGUCUCUCAGCAGGGCAUCUCUGAGAGAAAUGCC [U47A G54A U81G U104G A117U],0.24
9,UACGUAGGUGGUCUUCCCCUGAUAGUGCUAAGGGGGCCUGGAAGUUUGGACUGGGCAGAGCUCAACACGGCGUGGCUAAGUGGUUGUGGCUAGACUGCCUCUCUGGAUUCCUCGUCACUCAGCAGGGCAUCUCCGAGAGAAAUGCC [U13C A69G A77U C84U U134C],0.06
10,UACGCAGGUGGUUUUCCCCUGAUAGUGCUAAGGGGGCUUGGAAGUUUGGACUGGGCGGAGCUCAACACGGCGUGGCAAAGAGGCUGUGGCUAGACUGCCUCUCUGGAUUCCUCGUCACUCAGCAGGGCAUCUCUGAGAGAAAUGCC [U5C C38U A57G A69G U81A],0.48
11,UACGUAGGUGGUCUUCCCCUGAUAGUGCUAAGGGGGCCUGGAAGCUUGGACUGGGCUGAGCUCAACACAGCGUGGCAAAGUGGCUGUGGCUAGACUGCCUCUCUGGAUUCCUCGUCACUCAGCAGGGCAUCUCUGAGAGAAGUGCC [U13C U45C A57U A142G],0
12,UACGUAGGUGGUUUUCCCCUGAUAGUGCUAAGGGGGCCUGGAAGUUUGGACUGGGCAGAGCUCAACACAGCGAGGCAGAGUGGCCGUGGCUAGACUGCCUCUCUGGGUUCCUCGUCACUCAGCAGGGCAUCUCUGAGAGAAAUGCC [U73A A78G U85C A107G],0
13,UACGUAGGUGGCUUUCCCCUGAUAGUGCUGAGGGGGCCUGGAAGUUUGGACUGGGCAGAGCUCAACACAGCGUGGCAAAGUGGCUGUGGCUAGACUGCCUCUCUGGAUUCCUCGUCACUCAGCAGGGCAUCUCAGAGAGAAAUGCC [U12C A30G U134A],1.21
14,UACGUAGGUGGUUUUCCCCUGAUAGUGCUAAGGGGGCCUGGAAGUUUGGACUGGGCAGAGCACAACACAGCGUGGCAAAGAGGCUGUGGCUAGACUGCCCCUCUGGAUUCCUCGUCACUCAGCAGGGCAUCUCUGAGAGAAAUGCC [U62A U81A U100C],0.11
15,UACGUAGGUGGUUUACCCCUGAUAGUGCUAAGGGGGCCUGGAAGUUUGGACUGGGCAGAGCUCAACACAGCGUGGCAAAGUGGCUGAGGCUAGACUGCCUCUCUGGAUUCCUCGUCACUCAGCAGGGCACCUCUGAGAGAAAUGCC [U15A U87A U130C],0
16,UACGUAGGUGGUUUUCCCCUGAUUGUGCUAAGGGGGCCUGGAAGCUUGGACUGGGCAGAGCUCAACACAGCGUGGCAAAGUGGCUGUGGCUAGACUGCCUCCCUGGAUUCCUCGUCACUCAGCAGGGCAUCUCUGAGAGAAAUGCC [A24U U45C U102C],1.71
17,UACGUAGGUGGUUUUCCCCCGAUAGUGCCAAGGGGGCCUGGAAGUUUGGACUGGGCAGAGCUCAACACAGCGUGGCAAAGUGGCUGUGGCUAGACUGCCUCUCUGGAUUCCUCGUCACACAGCGGGGCAUCUCUGAGAGGAAUGCC [U20C U29C U119A A124G A140G],0
18,UACGUAGGUGGUUUUCCCCUGAUGGUGCUAAGGGGGCCUGGAAGUUUGGACUGGGCAGAGCUCAACACAGCGUGGCAAAGUGGCUGUGGCUAGACUGCCUCUCUGGACUCCUCAUCACUCAGCAGGGCAUCCCUGAGAGAAAUGCC [A24G U108C G114A U132C],1.11
19,UACGUAGGUGGUUUUCCCCUGAUAGCGCUAAGGGGGCCUGGAAGUUUGGACUGGGCAGGGCUCAACACAGCGUGGCAAAGUGGCUGUGGCUAGACUGCCUCUCUGGAUUCCCCGUCACUCAGCAGGGCAUCUCUGAGAGAAAUGCC [U26C A59G U112C],0.26
